The list shows a part of the results. Sequences were assembled here from the parent chain. Inactive controls read about 0.05.
B1: TEV protease; numbered along this chain (parent)
chain: MGESLFKGPRDYNPISSSICHLTNESDGHTTSLYGIGFGPFIITNKHLFRRNNGTLVVQSLHGVFKVKDTTTLQQHLVDGRDMIIIRMPKDFPPFPQKLKFREPQREERICLVTTNFQTKSMSSMVSDTSCTFPSGDGIFWKHWIQTKDGQCGSPLVSTRDGFIVGIHSASNFTNTNNYFTSVPKNFMELLTNQEAQQWVSGWRLNADSVLWGGHKVFMVKPEEPFQPVKEATQL

Variants of: B1
Assay: raw area under fraction-flipped curve 0-4 h after induction (AUC4h, not background-subtracted), DNA-recorder readout of cleavage of the substrate (dimensionless); higher = more cleavage of the substrate by the protease variant
Details: temperature: 34 °C; time window: 0-4 h after rhamnose induction
Description: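 In vivo DNA recorder in E. coli TOP10(DE3) ΔrhaA at 34 °C. Each TEVp single-site mutant (parent TEVp 0) is paired with a single-site variant of the 7-mer TEVs (canonical ENLYFQ|S). The substrate sits between flexible linkers in a Bxb1-sfGFP-TEVs-SsrA fusion, so cleavage stabilises Bxb1 and speeds flipping of a recombination array, read by NGS. The value is the raw area under the fraction-flipped curve over 0-4 h after rhamnose induction (AUC4h), with ≥20 reads per time point. It is not background-subtracted; inactive controls average about 0.047.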
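Also: Bxb1 expression induced with 0.2% (w/v) L-rhamnose at OD600 near 0.5, cultures sampled hourly, flipped fraction per protease–substrate barcode pair counted by paired-end Illumina sequencing.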

Variant	area with substrate ENLYFQA	area with substrate ENLYFQC	area with substrate ENLYFQD	area with substrate ENLYFQG	area with substrate ENLYFQK	area with substrate ENLYFQM	area with substrate ENLYFQS	area with substrate ENLYFQV	area with substrate ENLYFQW	area with substrate ENLYFQF	area with substrate ENLYFQH	area with substrate ENLYFQL	area with substrate ENLYFQN	area with substrate ENLYFQP	area with substrate ENLYFQR	area with substrate ENLYFQT	area with substrate ENLYFQI	area with substrate ENLYFQQ	area with substrate ENLYFQY	area with substrate ENLYFQE
Y34A	0.0808	0.0832	0.0457	0.0827	0.0589	0.07	0.0897	0.0538	0.0664											
F92I	0.076		0.0704	0.107		0.0778	0.0975	0.0657		0.0629	0.078	0.0565	0.0642	0.0487	0.0589	0.07				
L22Q	0.0481	0.0538			0.0367	0.0429	0.0488	0.0546	0.0449	0.0398	0.0572	0.0478	0.0424		0.0518	0.065	0.0499	0.0403	0.0317	
T119Y	0.127	0.105	0.0705	0.0627			0.0934		0.0614	0.0715	0.0752		0.0806		0.038	0.0626			0.0695	
N186D	0.0973	0.129		0.121	0.0666	0.127	0.098	0.0441	0.0861			0.0583	0.0694	0.067	0.0596		0.0493	0.0575	0.0745	
R50G	0.0856	0.103		0.107	0.0791	0.0861	0.107	0.0531	0.0655			0.0628	0.0807		0.0994	0.0609	0.0593		0.0697	
K148H	0.0744	0.0977		0.0945	0.0756		0.0827		0.035	0.0686	0.0846	0.0924	0.068			0.0593	0.0525		0.0729	
E3T	0.157	0.129					0.137		0.0682			0.0557	0.0795		0.0649	0.0627	0.0492			
L73N	0.0538	0.0679		0.0684	0.0587	0.0421	0.0576	0.0683	0.0619		0.0598		0.0472		0.0461	0.0488			0.037	0.0538
S158P	0.0508	0.0513	0.0443	0.0652	0.0519	0.0628	0.0512	0.0555	0.0769			0.0309	0.0453	0.0373	0.0549	0.0553	0.0451	0.0592	0.0542	
I84T	0.0669		0.0615				0.0794	0.0612	0.0541				0.0672		0.06		0.0573			
F101C	0.0693	0.0825	0.0662		0.0592	0.0518	0.076	0.0307	0.0556		0.0615	0.0514	0.0572		0.057	0.0547	0.054			0.0477
V157Q	0.0706	0.0756		0.0735	0.0494		0.0783		0.0573	0.0585						0.074	0.0545	0.041		0.052
F95I	0.0911	0.0891	0.0755	0.0862		0.0721	0.0823		0.0759		0.0669	0.0464	0.0644	0.0747	0.0732	0.0749	0.0478			
P96I	0.0878	0.095		0.112		0.0802	0.0982		0.0694			0.0594	0.0708		0.0577	0.0593	0.0668			
D69K	0.0828			0.097	0.0655	0.0938	0.0914	0.0537	0.045		0.0847	0.0587		0.0608	0.0462					0.0766
K7G	0.0902					0.0918	0.0928					0.0506			0.0783	0.0723	0.054	0.089	0.0893	
K7L	0.11	0.0578	0.0607		0.0687		0.0759		0.0543	0.0819		0.0611		0.0658	0.0588		0.0564		0.0585	0.0608
P89M	0.0791	0.0959		0.0711	0.0569	0.0673	0.0795			0.0682	0.059		0.0607	0.0732	0.0408	0.0411	0.076	0.057	0.0578	
A207H	0.0881	0.106					0.0958	0.0602		0.0633					0.0517					
T159D	0.102						0.102							0.0743		0.0756				
D82P	0.0236	0.023				0.0601	0.059	0.0582				0.0532		0.0575	0.0514		0.0529			0.0398
T233L	0.102	0.086	0.0591		0.0712	0.0659	0.0908		0.064	0.0417		0.0627	0.0791	0.0767		0.0609	0.055		0.0685	
R87I	0.0592	0.0805	0.0587	0.0767	0.057	0.0765	0.0844	0.0579		0.055		0.05	0.0642		0.0591	0.0621			0.0634	
L99G	0.0658	0.0923					0.0875		0.0357					0.0612	0.0655				0.0621	
L191E	0.0593	0.064			0.0485	0.0659	0.0599	0.0939	0.0546		0.0586	0.0563	0.0572		0.0583		0.0469			
M122R	0.104				0.0599	0.166	0.113	0.0617		0.0985		0.0958				0.0811				
N52L	0.0637	0.0638	0.0674	0.067	0.0705	0.0607	0.0677	0.066		0.0403			0.0793	0.0648	0.0374	0.0551	0.0587		0.0481	0.0624
S124N	0.0992	0.112		0.123		0.0825	0.0926		0.0602	0.0798	0.067	0.055		0.061	0.0614	0.0418	0.0699			
